According to PMC4336329 (PLoS ONE, 2015):
The campaign covered roughly 310,000 compounds. About 14,000 (4.5%) showed an effect of 50% or more. Effects have a minus sign here. Some of the results follow.

Target: human ether-à-go-go-related gene (hERG) potassium channel (human, UniProt Q12809)
Test: primary screen, population patch clamp on CHO cells stably expressing hERG
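Also: peak tail current of the secondary pulse compared with the same well before compound.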

Chain of human ether-à-go-go-related gene (hERG) potassium channel (Q12809 whole entry, looked up): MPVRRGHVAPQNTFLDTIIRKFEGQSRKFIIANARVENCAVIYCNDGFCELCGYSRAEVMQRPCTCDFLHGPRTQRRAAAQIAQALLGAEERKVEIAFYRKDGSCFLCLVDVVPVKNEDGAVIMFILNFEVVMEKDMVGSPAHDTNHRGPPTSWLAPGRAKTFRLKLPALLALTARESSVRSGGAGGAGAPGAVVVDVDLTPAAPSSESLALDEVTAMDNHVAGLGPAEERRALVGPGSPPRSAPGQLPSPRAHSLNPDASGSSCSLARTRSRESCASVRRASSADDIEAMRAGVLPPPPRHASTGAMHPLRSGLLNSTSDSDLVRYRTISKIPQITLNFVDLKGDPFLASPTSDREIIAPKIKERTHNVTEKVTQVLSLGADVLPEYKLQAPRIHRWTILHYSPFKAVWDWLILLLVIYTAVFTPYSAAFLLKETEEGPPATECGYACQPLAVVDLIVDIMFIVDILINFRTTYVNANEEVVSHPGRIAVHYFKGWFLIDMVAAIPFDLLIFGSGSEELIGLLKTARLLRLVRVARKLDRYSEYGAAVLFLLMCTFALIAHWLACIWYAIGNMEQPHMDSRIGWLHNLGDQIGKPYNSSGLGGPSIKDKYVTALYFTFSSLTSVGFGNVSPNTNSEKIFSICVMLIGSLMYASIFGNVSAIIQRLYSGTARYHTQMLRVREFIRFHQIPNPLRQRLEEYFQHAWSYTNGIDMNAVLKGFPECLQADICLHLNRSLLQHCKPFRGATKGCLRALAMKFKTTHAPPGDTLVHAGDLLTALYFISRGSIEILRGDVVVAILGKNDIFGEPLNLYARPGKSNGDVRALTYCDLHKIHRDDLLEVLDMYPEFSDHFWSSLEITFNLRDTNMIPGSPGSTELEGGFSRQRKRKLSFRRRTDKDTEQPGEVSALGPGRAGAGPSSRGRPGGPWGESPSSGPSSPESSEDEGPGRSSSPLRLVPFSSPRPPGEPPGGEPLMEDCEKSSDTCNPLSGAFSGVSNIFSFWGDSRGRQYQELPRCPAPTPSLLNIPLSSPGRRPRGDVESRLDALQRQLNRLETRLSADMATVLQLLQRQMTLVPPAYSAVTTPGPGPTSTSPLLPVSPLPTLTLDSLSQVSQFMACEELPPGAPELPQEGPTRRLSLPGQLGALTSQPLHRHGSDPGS

| Structure (SMILES) | hERG current change (%, negative = inhibition) at 10uM |
| --- | --- |
| COc1ccc(C)cc1NC(=O)C1CCN(S(=O)(=O)c2ccc3c(c2)NC(=O)CO3)CC1 | -12.1% |
| O=C(O)c1ccc(N/N=C2/CCSc3ccc(F)cc32)cc1 | 2.8% |
| CC(=O)CCc1oc2ccccc2c1-c1ccccc1 | -1.37% |
| CCCc1cc(C(=O)Nc2cc(Br)ccc2O)no1 | 6.26% |
| Cc1c(Br)c([N+](=O)[O-])nn1CCCC(=O)Nc1sc2c(c1C(N)=O)CCC(C)C2 (stereo not drawn) | -15.7% |
| Cc1ccc2nc(-c3ccc(SCC(=O)Nc4nc(C)cs4)nc3)[nH]c2c1 | -3.66% |
| O=S(=O)(CCN1CCN(c2ccccn2)CC1)c1ccc(Cl)cc1Cl | -24.8% |
| Cc1ccc(-c2nn3cnnc3c3ccccc23)cc1C | -22.1% |
| O=C(N/N=C/c1c(O)n(CCC2=CCCCC2)c(=S)[nH]c1=O)c1ccccc1 | 7.94% |
| Cc1cccc(OCc2nc(-c3ccccn3)n[nH]2)c1 | -6.94% |
| COc1ccc2oc(=O)c(C(C)=O)cc2c1 | 13.6% |
| COCCOC(=O)C1=C(C)NC(=O)NC1c1c(F)cccc1Cl (stereo not drawn) | 7.02% |
| COCCNc1ncnc2c1cnn2Cc1ccc(Cl)cc1 | -15.7% |
| O=C(O)CC(NC(=O)C1c2ccccc2Oc2ccccc21)c1ccc(OC2CCCC2)cc1 (stereo not drawn) | 11.9% |
| CCOC(=O)c1ccccc1NC(=O)COC(=O)CCNS(=O)(=O)c1ccc(C)c(C)c1 | 10% |
| COc1ccc2cnnc(SCC(=O)Nc3ccc(C(C)=O)cc3)c2c1OC | -6.69% |
| CC(C)(O)CC[C@@H](O)[C@](C)(O)C1CC[C@@]2(O)C3=CC(=O)[C@]4(O)C[C@@H](O)[C@@H](O)C[C@]4(C)C3CC[C@]12C (stereo partly drawn) | 30.1% |
| CCc1ccccc1NC(=O)COc1cccc(-n2cnnn2)c1 | -8.5% |
| CCOC(=O)C1=C(C)C2C3C(=O)N(c4ccccc4C)C(=O)C3C1(C)C1C(=O)N(c3ccccc3C)C(=O)C21 (stereo not drawn) | -0.0223% |
| Cc1c(NC(=O)c2cccc(S(=O)(=O)N3CCOCC3)c2)c(=O)n(-c2ccccc2)n1C | 3.62% |
| CC(C)CC(NC(=O)COc1ccccc1)C(=O)O (stereo not drawn) | 20.4% |

| Structure (SMILES) | hERG current change (%, negative = inhibition) at 10uM |
| --- | --- |
| O=C(O)c1ccc(NC(=O)c2cn(-c3ccccc3)nc2-c2ccccc2)cc1 | 32.6% |
| O=C(CCCNC(=O)c1ccc(Cl)cc1)NCc1ccc(F)cc1 | -19.7% |
| CS(=O)(=O)c1nc([N+](=O)[O-])nn1CCCc1ccccc1 | 23.6% |
| O=C(CCc1ccccc1)NNC(=O)COc1ccccc1 | 5.24% |
| O=C(CN1CCOCC1)Nc1cccc(Br)c1 | -15.4% |
| Cc1nn(-c2ccccc2)c2nc(N)c(C#N)c(-c3ccc(F)cc3)c12 | 6.57% |
| Cn1c(CCN2CCCC2)nc2cc(NS(=O)(=O)c3ccc(Cl)cc3)ccc21 | -84% |
| O=C1c2ccccc2-c2ccc(C(=O)N3CCCCC3)cc21 | -6.85% |
| CCN1CCCc2cc(CN(CCN3CCOCC3)C(=S)Nc3cccc(Cl)c3)ccc21 | 0.317% |
| C/C(=N\Nc1ccccn1)c1ccc(S(=O)(=O)NCc2ccco2)cc1 | -39.1% |
| CCN(C(=O)COC(=O)c1cc(OC)c(OC)cc1[N+](=O)[O-])C1CCS(=O)(=O)C1 (stereo not drawn) | 5.76% |
| Clc1ccc(-n2nnnc2CN2CCOCC2)cc1 | -3.25% |
| Cc1c(NS(=O)(=O)c2cc(NC(=O)CCN3CCCC(C)C3)ccc2Cl)c(=O)n(-c2ccccc2)n1C (stereo not drawn) | 21.9% |
| Cc1sc2nc(SCC(=O)Nc3ccc(S(N)(=O)=O)cc3)[nH]c(=O)c2c1C | -0.66% |
| Cc1c(CC(=O)NCCCC(=O)O)c(=O)oc2cc3c(cc12)CCC(C)(C)O3 | -64.5% |
| Cc1c(C(=O)Nc2ccc(F)cc2)sc2ncn(CC(=O)N3CCCCC3)c(=O)c12 | 1.43% |
| COC(=O)c1c(NC(=O)CSc2ccccc2N)sc(C)c1C | 5.65% |
| O=CO.c1ccc2c(c1)CSc1sccc1C2=C1CCNCC1 | 0.325% |
| N/C(Cc1ccc([N+](=O)[O-])cc1)=N\OC(=O)c1ccc(Br)cc1 | -41.5% |
| CCC(=O)Nc1ccc(S(=O)(=O)Nc2ncccn2)cc1 | 19.8% |
| CC(C)Sc1nc2c(c(=O)[nH]c(=O)n2C)n1CC(O)COc1ccccc1 (stereo not drawn) | 11.1% |

| Structure (SMILES) | hERG current change (%, negative = inhibition) at 10uM |
| --- | --- |
| CCCc1nc2oc3c(NCC(C)O)ncnc3c2c2c1CCCC2 (stereo not drawn) | -26.9% |
| Cc1ccc(N(CC(=O)NCc2ccco2)S(=O)(=O)c2ccccc2)cc1 | -22% |
| CCOC(=O)c1sc(=S)n(-c2ccc(C)cc2)c1SC | 3.25% |
| O=C(NCCCNCc1ccccc1)/C(=N\O)c1ccccc1 | -11.4% |
| COc1ccc(S(=O)(=O)Nc2ccc3c(c2)N(C(C)=O)CCC3)cc1OC | 11.8% |
| CN(C)C(=O)NC(Nc1cccc([N+](=O)[O-])c1)C(Cl)(Cl)Cl (stereo not drawn) | -27.1% |
| COCCNc1nc2c(c(=O)n(Cc3cccc(Cl)c3)c(=O)n2C)n1C | 3.81% |
| COc1ccccc1C1OC2=C(Nc3ccc([N+](=O)[O-])cc3N2)C1=O (stereo not drawn) | -9.97% |
| O=C(Oc1ccc(C(=S)N2CCOCC2)cc1)c1cc([N+](=O)[O-])cc([N+](=O)[O-])c1 | 8.79% |
| COC(=O)C1=C(c2ccc(C(C)=O)cc2)C[C@@H]2CC[C@H]1N2C(=O)NC1CCCCC1 | -27.1% |
| CC1=C(C(=O)Nc2ccc(C)cc2C)C(c2ccc(C)o2)NC(=S)N1 (stereo not drawn) | 5.96% |
| COc1ccc(C2=NS(=O)(=O)N(C)C(C(=O)NCc3ccc4c(c3)OCO4)=C2)cc1 | -63.3% |
| CCc1noc(C)c1C(=O)Nc1ccc(C)c(S(=O)(=O)N2CCCCCC2)c1 | -45.6% |
| O=C(Nc1ccc(C(=O)N2CCCCC2)cc1)c1ccccc1Br | 8.24% |
| CCOC(=O)c1nn(-c2ccccc2)c(C)c1C(C)=O | 7.24% |
| COC(=O)c1nc(-c2ccc(C)cc2)oc1N(C)C | 10.5% |
| CCCCc1nnc(NC(=O)Cc2ccc(S(=O)(=O)N3CCOCC3)s2)s1 | 3.58% |
| CC(=O)c1sc(NC(=O)CCS(=O)(=O)c2ccccc2)nc1C | 8.51% |
| Nc1ccc(C(=O)Nc2cccc(NC(=O)c3ccc(N)cc3)c2)cc1 | 17.7% |
| CNC(=O)c1nnn(Cc2ccccc2)c1NC(C)=O | 0.326% |
| O=C1CCCC(=NCc2ccco2)C1 | 1.15% |

| Structure (SMILES) | hERG current change (%, negative = inhibition) at 10uM |
| --- | --- |
| CC(Oc1ccccc1)C(=O)N1CCC2(CC1)Oc1ccc(F)cc1C(=O)C21CC(c2ccc(Cl)cc2)=NO1 (stereo not drawn) | 14% |
| CCc1cc(C(=O)OC)c(NC(=O)c2cc(Br)cs2)s1 | -2.11% |
| CCOC(=O)c1ccc(NC(=O)NCc2ccccc2)cc1 | -9.51% |
| CO/N=C/C(=N\Nc1cc(OC)cc(OC)c1)C(=O)c1ccccc1 | 22% |
| COC(=O)C1=C(c2ccccc2OCc2ccccc2)C[C@@H]2CC[C@H]1N2C(=O)NCc1ccc(C(C)(C)C)cc1 | 8.59% |
| CN1CCc2c(sc(NC(=O)C3CCCCC3)c2C(N)=O)C1.Cl | 2.22% |
| CC(Oc1ccc(Br)cc1Br)C(=O)NC1CCCC1 (stereo not drawn) | 16.2% |
| CC(NC(=O)c1cc(S(=O)(=O)N2CCOCC2)cn1C)c1ccccc1 (stereo not drawn) | -5.42% |
| Cc1c(NC(=O)CC(O)(C(F)(F)F)C(F)(F)F)c(=O)n(-c2ccccc2)n1C | 8.65% |
| COc1ccc(/C=C/C(=O)Oc2cccc(/C=N/NC(=O)Cc3ccc(Br)cc3)c2)cc1 | -0.724% |
| CCOC(=O)c1c(-c2ccc(OC)cc2)csc1NC(=O)CCN1CCOCC1 | -53.2% |
| O=C(CCc1nc2ccccc2c(=O)[nH]1)OCC(=O)c1cccc(Cl)c1 | -5.06% |
| O=C(CCN1N=C(c2ccccc2)CCC1=O)NC1CCCC1 | 12.1% |
| O=C(Cc1ccccc1F)c1ccc(O)cc1O | 3.53% |
| CC(Sc1nnc2ccccn12)C(=O)N1CCc2ccccc2C1 (stereo not drawn) | -4.77% |
| Cc1csc(=O)n1CC(=O)OCC(=O)c1c(N)n(CC(C)C)c(=O)n(C)c1=O | -10.7% |
| COc1cc(-c2ccc(N)c(OC)c2)ccc1N | 4.89% |
| O=S(=O)(Nc1ccc(F)cc1Cl)c1ccc(-c2cnc(C3CC3)o2)cc1 | -0.162% |
| COC(=O)c1ccc(N(CC(=O)NC2CCCC2)C(=O)c2ccc(C)s2)cc1 | -10.3% |
| CN(C)C(CNC(=O)CNC(=O)Cc1cccc2ccccc12)c1ccccc1 (stereo not drawn) | -12.4% |
| CCOC(=O)CCC(=O)O[C@H]1[C@H](O[C@@H]2[C@@H](C)[C@H](O[C@H]3C[C@@](C)(OC)[C@@H](O)[C@H](C)O3)[C@@H](C)C(=O)O[C@H](CC)[C@@](C)(O)[C@H](O)[C@@H](C)C(=O)[C@H](C)C[C@@]2(C)O)O[C@H](C)C[C@@H]1N(C)C | -3.25% |
